PubChem BioAssay AID485281 (National Center for Advancing Translational Sciences (NCATS), 2010)
The campaign covered roughly 350,000 compounds. About 260 (0.074%) were called active. Inconclusive results, whose numbers are uncertain, are shown with a selection of clear calls. Calls follow the shape of the dose curve; as a rule, active = well fitted inhibition curve with a large enough effect; inconclusive = small, poorly fitted or top-dose-only effect; inactive = no such curve, though single readings can be large or run the other way. Potencies of inconclusive entries are doubtful fits and often do not repeat.

Target: Ferritin light chain (Equus caballus) (UniProt P02791)
Assay: qHTS Assay for Identification of Novel General Anesthetics; also: nearly all actives have a fitted effect of over 20% in size
Settings: apoferritin/1-aminoanthracene competitive binding, fluorescence; activity change, negative = displacement: at 77.5 µM (top of the series)
Summary of the method: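 In PBS, apoferritin at 10 uM is loaded with 1-AMA from a 50% saturated solution. After 10 min of compound exposure at ambient temperature, reduced 535 nm fluorescence indicates probe displacement.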
% is scaled to controls: 0 for no effect and ±100 for the full control effect; potency is read from the fitted curve at half-maximal effect; tags tell the direction and shape of the fitted curve.

Chain of UniProt P02791 (P02791 whole entry, looked up): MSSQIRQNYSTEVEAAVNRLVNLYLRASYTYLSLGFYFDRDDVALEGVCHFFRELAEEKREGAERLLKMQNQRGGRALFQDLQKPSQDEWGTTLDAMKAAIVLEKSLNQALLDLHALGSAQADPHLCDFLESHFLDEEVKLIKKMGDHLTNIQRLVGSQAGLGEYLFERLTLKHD

| SMILES | Potency | activity change, negative = displacement |
| --- | --- | --- |
| COCCCNCCCCOc1ccc(OCc2ccccc2)cc1 | inconclusive: 31.6 µM [inhibitor, partial curve] |  |
| COc1cccc(NC(=O)Nc2ccccc2SC)c1 | inconclusive: 31.6 µM [inhibitor, single point] |  |
| CCOC(=O)c1ccc(NC(=O)c2ccc(CN3C(=O)CCn4nc(C)cc43)cc2)cc1 | inconclusive: 7.94 µM [inhibitor, partial curve] |  |
| Cc1ccc(O)c(C(=O)c2cnc3c(c2)CN(C)C(=O)N3)c1 | inconclusive: 39.8 µM [inhibitor, single point] |  |
| CCOC(=O)c1c(C)[nH]c(C)c1S(=O)(=O)N(C)CC(=O)NCc1cccc(Br)c1 | inactive |  |
| Cc1cc(C)nc(SCC(=O)c2ccc(O)cc2O)n1 |  | inactive: -10.3% |
| CCOc1ccc(NC(=O)c2cccnc2C(=O)O)cc1 | inconclusive: 112 µM [inhibitor, partial curve] |  |
| CCc1nc2ccc(C(=O)N3CCN(c4cccc(C(F)(F)F)c4)CC3)cc2nc1CC | inconclusive: 35.5 µM [inhibitor, partial curve] |  |
| O=C(Oc1c(CN2CCOCC2)cc(Cl)c2cccnc12)c1ccc(F)cc1 |  | inactive: -18% |
| COc1cccc(NC(=O)Nc2ccc3nc(N4CCN(C)CC4)cc(C)c3c2)c1 |  | inactive: 5.18% |
| COc1ccccc1CNC(=O)CSc1nn2c(=O)c(C(C)(C)C)nnc2s1 | inconclusive: 25.1 µM [inhibitor, partial curve] |  |
| COc1ccc(Cc2c(O)nc(SCC(=O)N3CCOCC3)[nH]c2=O)cc1 |  | inactive: 2.76% |
| CCOc1cc(Br)c(/C=C2/C(=O)N(C)C(=S)N2CC(=O)OC)cc1OC |  | inactive: -15.7% |
| CCOC(=O)c1cnc2ccc(OCC)cc2c1N1CCN(c2ccccc2F)CC1 | inconclusive: 12.6 µM [inhibitor, full curve, poor fit] |  |
| Cc1cccc(CCNS(=O)(=O)c2ccc3c(c2)n(C)c(=O)c(=O)n3C)c1 | inconclusive: 50.1 µM [inhibitor, partial curve, poor fit] |  |
| CN(C)S(=O)(=O)c1cccc(C(=O)OCC(=O)c2ccc3c(c2)NC(=O)CO3)c1 | inconclusive: 17.8 µM [inhibitor, partial curve] |  |
| O=[N+]([O-])c1ccc(N2CCN(CC(O)COc3ccccc3)CC2)cc1 (stereo not drawn) | inconclusive: 31.6 µM [inhibitor, partial curve] |  |
| COc1ccc2[nH]c3nc(SCC(=O)Nc4ccc5c(c4)OCO5)nnc3c2c1 |  | inactive: -13.4% |
| FC(F)(F)c1cc(-c2cccc(Br)c2)nc2ncnn12 | inconclusive: 50.1 µM [inhibitor, single point] |  |
| Cc1cccc(C2NC(=O)c3ccccc3O2)c1 (stereo not drawn) | inconclusive: 22.4 µM [inhibitor, partial curve] |  |
| CCOC(=O)c1ccc(CN(Cc2ccccc2)S(=O)(=O)c2ccc(Cl)cc2)cc1 |  | inactive: 52.1% |
| O=c1[nH]c(CN(CCc2ccccc2)S(=O)(=O)c2ccc(Cl)cc2)nc2ccccc12 |  | inactive: 2.46% |
| Fc1cc2ncn(Cc3ccccc3)c2cc1F | inconclusive: 44.7 µM [inhibitor, single point] |  |
| Oc1c(C(c2ccccc2Cl)N2CCN(Cc3ccccc3)CC2)sc2nc(-c3ccco3)nn12 (stereo not drawn) | inconclusive: 14.1 µM [inhibitor, partial curve, poor fit] |  |
| Cc1ccc(Cl)cc1NC(=O)COC(=O)CC1CC2CCC1C2 (stereo not drawn) | inconclusive: 14.1 µM [inhibitor, partial curve] |  |

| SMILES | Potency | activity change, negative = displacement |
| --- | --- | --- |
| Cc1ccccc1Cc1c(C)nc2ncnn2c1C |  | inactive: -19.1% |
| O=C(c1ccncc1)N1N=C(c2ccc(Br)cc2)CC1c1ccccc1O (stereo not drawn) | inconclusive: 7.08 µM [inhibitor, partial curve] |  |
| CN(C)c1ccc(-n2cccc2/C=C2/SC(=Nc3ccc(F)cc3)NC2=O)cc1 | inconclusive: 50.1 µM [inhibitor, single point] |  |
| CCc1ccc(Nc2n[n+](-c3ccccc3)c(-c3c(Cl)cccc3Cl)s2)cc1 | inconclusive: 14.1 µM [inhibitor, partial curve] |  |
| CCc1ccccc1NC(=S)N1N=CCC1c1ccccc1 (stereo not drawn) | inconclusive: 28.2 µM [inhibitor, partial curve] |  |
| CCc1nnc(NC(=O)CSc2nnc(COc3cccc(C)c3)o2)s1 | inconclusive: 28.2 µM [inhibitor, partial curve] |  |
| COc1ccccc1CNS(=O)(=O)c1ccc(-c2cc(C(F)(F)F)on2)s1 | inconclusive: 50.1 µM [inhibitor, single point] |  |
| O=C(N/C=C/c1ccco1)NCc1ccccc1 |  | inactive: -8.73% |
| O=C1NCCCC2c3c(cc(Br)c(O)c3Br)OC12N1CCOCC1 (stereo not drawn) |  | inactive: -5.95% |
| O=C(CC(=O)N/N=C\c1ccccc1[N+](=O)[O-])NCCc1ccccc1 | inconclusive: 22.4 µM [inhibitor, partial curve] |  |
| O=C(Nc1ccccc1Cl)OCc1cncs1 | inconclusive: 28.2 µM [inhibitor, partial curve] |  |
| O=C1CCCCC1c1cccc2ccccc12 (stereo not drawn) | inconclusive: 14.1 µM [inhibitor, partial curve] |  |
| Cc1ccc(S(=O)(=O)N2CCN(C(=O)N(C)C)CC2)cc1C |  | inactive: 3.98% |
| Clc1ccc(OCCOCCOc2cccc3cccnc23)c(Br)c1 | inconclusive: 39.8 µM [inhibitor, single point] |  |
| O=C(CN1C(=O)c2ccccc2C1=O)Nc1cccc2cccnc12 | inconclusive: 31.6 µM [inhibitor, partial curve] |  |
| COc1ccc(NC(=O)CC(C)NCCCN2CCCC2=O)cc1 (stereo not drawn) |  | inactive: 5.73% |
| O=C(c1ccco1)N(Cc1ccc([N+](=O)[O-])cc1)c1ccc(Br)cc1 | inconclusive: 31.6 µM [inhibitor, partial curve] |  |
| CCOc1ccccc1N1CCN(S(=O)(=O)c2cc(C)ccc2OC)CC1 | inconclusive: 35.5 µM [inhibitor, partial curve] |  |
| Nc1n[nH]c(N)c1N=Nc1ccccc1 | inconclusive: 35.5 µM [inhibitor, partial curve] |  |
| Cc1ccc(C)c(N2CCN(C(=O)c3ccc(N4CCOCC4)c([N+](=O)[O-])c3)CC2)c1 | inconclusive: 22.4 µM [inhibitor, single point] |  |
| CCCCCC(=O)Nc1nc(C)c(-c2csc(Nc3cc(OC)ccc3OC)n2)s1 | inconclusive: 10 µM [inhibitor, partial curve] |  |
| CCSc1nsc(NC(=O)Nc2cccc(C(C)=O)c2)n1 | inconclusive: 39.8 µM [inhibitor, single point] |  |
| CCOC(=O)c1sc2nc(CC(=O)OC)nc(NCc3ccco3)c2c1C |  | inactive: 2.8% |
| CN1c2ccccc2Oc2nnc(Cl)cc21 |  | inactive: 137% |
| Cc1ccc(NCC(=O)N/N=C/c2c[nH]c3ccccc23)cc1 | inconclusive: 22.4 µM [inhibitor, partial curve] |  |

| SMILES | Potency | activity change, negative = displacement |
| --- | --- | --- |
| O=C(CSc1nnc(-c2ccccn2)o1)Nc1ccccc1 |  | inactive: -5.54% |
| Cn1c(=O)c2c(nc(Sc3ncnn3CC(=O)NC3CCCCC3)n2C)n(C)c1=O |  | inactive: -6.95% |
| CCc1ccc(NC(=O)CSc2nc3n[nH]c(C)c3c(=N)n2-c2ccc(C)cc2)cc1 | inconclusive: 1.12 µM [inhibitor, full curve] |  |
| COc1ccc(C(=O)NC(=S)N2CCCCC2)cc1 | inconclusive: 39.8 µM [inhibitor, partial curve, poor fit] |  |
| CCOC(=O)c1cc(CC)sc1N1C(=O)CC(Sc2ncccc2C(=O)O)C1=O (stereo not drawn) |  | inactive: -5.92% |
| O=C(CNC(=O)c1ccc2c(c1)OCCO2)N/N=C/c1ccc([N+](=O)[O-])cc1 | inconclusive: 7.94 µM [inhibitor, full curve] |  |
| CCC(C(=O)NCc1ccco1)N(C(=O)CNS(=O)(=O)c1ccc(C)cc1)c1ccccc1OC (stereo not drawn) |  | inactive: -19.5% |
| Cc1ccc(Cl)c(N/C=C/C(=O)c2ccccc2)c1 |  | inactive: -19.9% |
| O=C1C(NS(=O)(=O)c2cccs2)=C(N2CCN(Cc3ccccc3)CC2)C(=O)c2ccccc21 |  | inactive: -14% |
| O=C(Nc1ccccc1OCc1cc(=O)n2ccccc2n1)c1cccc(Br)c1 |  | inactive: -10.6% |
| CCn1c(-c2cc(-c3cc(OC)ccc3OC)nc3ccccc23)n[nH]c1=S |  | inactive: -3.47% |
| CCCn1nc2cc(C(=O)NCCc3cccs3)ccc2c1OCC |  | inactive: 0.719% |
| COc1ccc(CCN(C)C/C=C/c2ccccc2[N+](=O)[O-])cc1OC |  | inactive: -4.01% |
| COCCn1c(N2CCN(c3ccccc3)CC2)nc2c1c(=O)n(C)c(=O)n2C |  | inactive: -6.94% |
| CC(C)(C)Cc1nnc(NC(=O)CN2C(=O)c3ccccc3C2=O)s1 | inconclusive: 28.2 µM [inhibitor, partial curve] |  |
| c1ccc2c(c1)ncn2CCC1CCCCC1 | inconclusive: 39.8 µM [inhibitor, partial curve] |  |
| Cc1ccccc1-c1nc2sc3c(c2c(=O)n1N)CCCC3 | inconclusive: 22.4 µM [inhibitor, partial curve] |  |
| Cc1nc2cc(C(=O)OCC(=O)NC34CC5CC(CC(C5)C3)C4)ccc2n1-c1ccccc1 | inconclusive: 25.1 µM [inhibitor, partial curve] |  |
| CCc1cc(C(=O)OC)c(NC(=O)C2CC(=O)NN2Cc2ccccc2)s1 (stereo not drawn) | inconclusive: 39.8 µM [inhibitor, partial curve] |  |
| COc1cc2ncnc(Nc3cccc(Cl)c3)c2cc1OC |  | inactive: -10.2% |
| Cc1ccc(C(=O)N/N=C\c2ccc(-c3ccc(Cl)c(Cl)c3)o2)cn1 |  | inactive: -5.06% |
| CCc1nn(CCCC(=O)Nc2ccc(C)c(C)c2)c(=O)c2cc3occc3n12 |  | inconclusive: -27% [inhibitor] |
| COc1ccc(C(=O)/C=C/c2cccc(OCc3ccccc3)c2)cc1CSCC(=O)O | inconclusive: 35.5 µM [inhibitor, single point] |  |
